Test results as given in the CheMixHub viscosity set.
This continues a long series; more values of the same kind are listed elsewhere.

Assay: xn = mol fraction of the nth substance listed

CC(C)[C@H](N)C(=O)O + O
viscosity [mPa·s]
Details	293.15 K	298.15 K	303.15 K	308.15 K
100 kPa, x1 = 0.00045	1.009	0.8968	0.8025	0.7231
100 kPa, x1 = 0.0009	1.016	–	0.8073	0.7274
100 kPa, x1 = 0.0013	1.024	0.9089	0.8122	–
100 kPa, x1 = 0.00166	1.049	0.936	0.839	0.754
100 kPa, x1 = 0.0018	1.031	0.9146	0.8173	–
100 kPa, x1 = 0.00225	–	0.9211	0.8221	–
100 kPa, x1 = 0.00269	–	0.9267	0.827	–
100 kPa, x1 = 0.00314	1.052	0.9336	0.8324	–
100 kPa, x1 = 0.003502	1.104	0.986	0.883	–
100 kPa, x1 = 0.00359	1.059	0.9386	0.8369	–
100 kPa, x1 = 0.005397	1.165	1.037	0.928	–
100 kPa, x1 = 0.007209	1.222	1.087	0.972	–
100 kPa, x1 = 0.008575	1.272	1.127	1.003	–
101 kPa, x1 = 0.000452	1.007	0.8955	0.8023	–
101 kPa, x1 = 0.0009	1.016	0.9037	0.81	–
101 kPa, x1 = 0.00135	1.026	0.9125	0.8182	–
101 kPa, x1 = 0.0018	–	0.9217	0.8267	–
101 kPa, x1 = 0.002245	1.046	0.931	0.8352	–
101 kPa, x1 = 0.002695	1.056	0.9403	0.8441	–
